Measured values as given in patent US20240050583A1, “PROTEIN-DRUG CONJUGATE AND SITE-SPECIFIC CONJUGATING METHOD” (HARBOUR BIOMED (SHANGHAI) CO., LTD, priority 2020, published 2024).
Numbering of substitutions follows the chain as printed. “Also recorded” adds a separate entry of the source.

Experiments:
[1] = biological target: T1, NCI-H929 cells highly expressing human BCMA (Homo sapiens, UniProt Q02223); assay: FACS binding to NCI-H929 cells; details: flow cytometry FACS
T1 construct: tumor cells NCI-H929 (ATCC, CRL-9068) highly expressing human BCMA; host or cells: NCI-H929
T1 sequence (Q02223 1-184): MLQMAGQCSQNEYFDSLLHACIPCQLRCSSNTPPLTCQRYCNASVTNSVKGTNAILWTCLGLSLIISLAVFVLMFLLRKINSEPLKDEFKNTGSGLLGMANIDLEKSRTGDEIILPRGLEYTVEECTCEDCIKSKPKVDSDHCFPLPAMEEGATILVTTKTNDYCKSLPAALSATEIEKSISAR
Procedure: (§1) Specifically, the cells were digested and resuspended in a DMEM complete medium, and the cell density was adjusted to 1×10^6 cells/mL. The cells were seeded in a 96-well V-bottom plate (Corning, #3894) at 100 μL/well, followed by the addition of test antibodies diluted in a 3-fold gradient at a concentration that was 2 times the final concentration, each at 100 μL/well. The cells were incubated at 4° C. for 1 h away from light. Thereafter, the cells in each well were rinsed twice with 100 μL of pre-cooled PBS, and centrifuged at 500 g at 4° C. for 5 min, and then the supernatant was discarded. Thereafter, a fluorescent secondary antibody (Alexa Fluor 488-conjugated AffiniPure Goat Anti-Human IgG, Fcγ Fragment Specific, Jackson ImmunoResearch Inc., #109-545-098, diluted in a 1:500 ratio) was added at 100 μL/well, and the plate was incubated at 4° C. for 30 min away from light. The cells in each well were then rinsed twice with 100 μL of pre-cooled PBS and centrifuged at 500 g at 4° C. for 5 min, and then the supernatant was discarded. Finally, the cells in each well were resuspended in 200 μL of pre-cooled PBS. Fluorescence signal values were read using a BD FACS CANTOII flow cytometer, and the data were processed and analyzed using FlowJo v10 (FlowJo, LLC) software.
This example further utilized the method described in 0 to study the binding ability of the HCAb antibody PR004433 and a variant molecule thereof to NCI-H929 cells (ATCC, CRL-9068) highly expressing human BCMA.

NCI-H929 cells [2] = assay: Cytotoxic killing experiment (Example 9.5), NCI-H929; details: 72 h, CellTiter-Glo; proteins up to 10 nM, mc-vc-PAB-MMAE up to 20 nM
Procedure: (§2) The HEK293T-hBCMA, NCI-H929, HEK293T and SNU-16 cells were seeded in 96-well plates (Perkin Elmer, #6005225) respectively, with the following seeded cell number: 2500 cells/50 μL/well (HEK293T-hBCMA), 5000 cells/50 μL/well (NCI-H929), 2500 cells/50 μL/well (HEK293T), and 5000 cells/50 μL/well (SNU-16). Then, the plates were incubated overnight at 37° C. with 5% CO2. Then, a test sample serially pre-diluted was added at 50 μL/well. PR004433, PR004433-ADC and PR004432-ADC were diluted at a 3-fold concentration gradient from the highest final concentration of 10 nM, and mc-vc-PAB-MMAE was diluted at a 3-fold concentration gradient from the highest final concentration of 20 nM. In addition, a well without the test sample was set as a control well. Thereafter, the plates were incubated at 37° C. with 5% CO2 for 72 h, a CellTiter-Glo cell viability detection reagent (Promega, #G7573) was added, then the plates were incubated at room temperature for at least 10 min to obtain stable luminescence signals, and the luminescence values were detected using a microplate reader. The cell viability was calculated based on the luminescence values by the following formula:
Cell viability (%)=(A/B)×100%
In which, A=experimental well (target cells+test sample+medium); B=control well (target cells+medium)
(§3) The data were processed and analyzed by plotting using GraphPad Prism 8 software, and binding curves of the antibodies to target cells, EC50 values and other parameters were obtained through four-parameter nonlinear fitting.
In this example, the method described in 0 was used to study the specific cell killing activity of antigen-binding proteins PR006468 (including a mouse IgG2c hinge region), PR004433 (including a human IgG1 hinge region) and coupling products PR006468-ADC and PR004433-ADC thereof against tumor cells NCI-H929 (ATCC, CRL-9068) highly expressing human BCMA.
In this example, the method described in 0 was used to study the specific cell killing activity of PR005744 and a coupling product PR005744-ADC thereof against tumor cells NCI-H929 (ATCC, CRL-9068) highly expressing human BCMA.

[3] = biological target: T2, HEK293T-hBCMA cells highly expressing human BCMA (Homo sapiens, UniProt Q02223); assay: FACS binding to HEK293T-hBCMA cells; details: flow cytometry FACS
T2 construct: host or cells: HEK293T-hBCMA
T2 sequence (Q02223 1-184): T1 sequence (Q02223 1-184)
Procedure: as §1

HCC1954 cells = assay: Cytotoxic killing experiment (Example 8.5), HCC1954; details: 72 h, CellTiter-Glo; proteins up to 30 nM, mc-vc-PAB-MMAE up to 60 nM
Procedure: This example was to study the cell killing activity of the anti-5T4 antibody coupling product PR004432-ADC against a human breast cancer cell strain HCC1954 (ATCC, CRL-2338) highly expressing human 5T4.
The HCC1954 cells were seeded in a 96-well plate (Perkin Elmer, #6005225) at 4000 cells/50 μL/well and incubated overnight at 37° C. with 5% CO2. Then, a test sample serially pre-diluted was added at 50 μL/well. PR004432, PR004432-ADC and PR004433-ADC were diluted at a 3-fold concentration gradient from the highest final concentration of 30 nM, and mc-vc-PAB-MMAE was diluted at a 3-fold concentration gradient from the highest final concentration of 60 nM. In addition, a well without the test sample was set as a control well. Thereafter, the plates were incubated at 37° C. with 5% CO2 for 72 h, a CellTiter-Glo cell viability detection reagent (Promega, #G7573) was added, then the plates were incubated at room temperature for at least 10 min to obtain stable luminescence signals, and the luminescence values were detected using a microplate reader. The cell viability was calculated based on the luminescence values by the following formula:
Cell viability (%)=(A/B)×100% […]
as §3

HEK293T-hBCMA cells = assay: Cytotoxic killing experiment (Example 9.5), HEK293T-hBCMA; details: 72 h, CellTiter-Glo; proteins up to 10 nM, mc-vc-PAB-MMAE up to 20 nM
Procedure: as §2, with “formula: […]” for “formula:”
as §3

NCI-H929 cells [4] = assay: Cytotoxic killing experiment (Example 7.5), NCI-H929; type: cell-based, human; details: 72 h, CellTiter-Glo; PR001046-ADC at 0.1 μg/mL and above; PR001046 0.01-1 μg/mL; mc-vc-PAB-MMAE 0.1-10 nM
Excerpt: The data were processed and analyzed by plotting using a GraphPad Prism 8 software. In this example, multiple groups of different PR001046-ADC samples were used, including samples containing different percentages of DAR=2 (D2) components before or after purification.

[5] = biological target: T3, HEK293/hCTLA4 cells highly expressing human CTLA4 (Homo sapiens, UniProt P16410); assay: FACS binding to cells highly expressing CTLA4; details: flow cytometry FACS
T3 construct: host or cells: HEK293/hCTLA4 (HEK293T-derived)
T3 sequence (P16410 36-223): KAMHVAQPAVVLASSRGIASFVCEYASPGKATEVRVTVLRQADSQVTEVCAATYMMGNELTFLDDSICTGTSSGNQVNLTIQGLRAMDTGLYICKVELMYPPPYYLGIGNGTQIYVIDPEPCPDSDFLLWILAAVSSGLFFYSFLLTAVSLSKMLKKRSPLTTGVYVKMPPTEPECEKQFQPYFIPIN
Procedure: The binding ability of the antibody molecules to an HEK293T cell strain HEK293/hCTLA4 (constructed by Harbour BioMed) highly expressing human CTLA4 and other cells was determined by flow cytometry FACS. Specifically, the HEK293/hCTLA4 cells were digested and resuspended in a DMEM medium, with the cell density adjusted to 1×10^6 cells/mL. HEK293 cells not expressing CTLA4 were used as a negative control. Thereafter, the cells were seeded in a 96-well V-bottom plate (Corning, #3894) at 100 μL/well and centrifuged at 4° C. for 5 min, and the supernatant was discarded. Then, the serially diluted antibody molecules were added to the 96-well plate at 100 μL/well, and the mixtures were well mixed. The antibody molecules could be serially diluted 3-fold from the highest final concentration of 500 nM to obtain a total of 12 concentrations. The cells were incubated at 4° C. for 1 h away from light.
Then, the cells in each well were rinsed twice with 100 μL of pre-cooled FACS buffer (PBS buffer containing 0.5% BSA) and centrifuged at 500 g at 4° C. for 5 min, and then the supernatant was discarded. […] Fluorescence signal values were read using a BD FACS CANTOII flow cytometer, and the data were processed and analyzed using FlowJo v10 (FlowJo, LLC) software.

B1: PR005744-ADC (conjugate)
chain 1: QVQLVESGGGVVQPGRSLRLSCAATGFTFSSYGMYWVRQAPGKGLEWVAAIWNDGSNNYYADSVKGRFTISRDDSKNTLNLQMNSLRAEDTAMYYCARDRLPMASLRYFDWLGVMDAWGQGTSVTVSSASTKGPSVFPLAPSSKSTSGGTAALGCLVKDYFPEPVTVSWNSGALTSGVHTFPAVLQSSGLYSLSSVVTVPSSSLGTQTYICNVNHKPSNTKVDKKVEPKSC
chain 2: [not shown - about 100 residues]FTFGQGTKLEIKRTVAAPSVFIFPPSDEQLKSGTASVVCLLNNFYPREAKVQWKVDNALQSGNSQESVTEQDSKDSTYSLSSTLTLSKADYEKHKVYACEVTHQGLSSPVTKSFNRGECEVQLVETGGGLIQPGGSLRLSCAASGFTVSDSYMTWVRQAPGKGLEWVSVIFSGGRTYYSDSVKGRFTISRDNAKNTLYLQMNSLRAEDTALYYCARRNYDDTRGTDVFDIWGQGTMVTVSS[not shown - human IgG1 Fc]
- binding ability to NCI-H929 cells [1]: can specifically bind
- cytotoxic killing against NCI-H929 cells (NCI-H929 cells [2]): effective and specific cytotoxic killing

B2: PR004433-ADC (conjugate)
heavy: EVQLVETGGGLIQPGGSLRLSCAASGFTVSDSYMTWVRQAPGKGLEWVSVIFSGGRTYYSDSVKGRFTISRDNAKNTLYLQMNSLRAEDTALYYCARRNYDDTRGTDVFDIWGQGTMVTVSS[not shown - human IgG1 Fc]
- binding activity to HEK293T-hBCMA cells [3]: strong specific binding
- cytotoxic killing against HCC1954 cells (HCC1954 cells): cannot produce effective killing
- cytotoxic killing against HEK293T-hBCMA cells (HEK293T-hBCMA cells): specific cytotoxicity; also recorded: effective and specific cytotoxic killing
- binding ability to NCI-H929 cells [1]: strong specific binding
- cytotoxic killing against NCI-H929 cells (NCI-H929 cells [2]): specific cytotoxicity; also recorded: effective and specific cytotoxic killing

B3: PR001046: anti-BCMA HCAb antibody, SEQ ID NO: 68 (antibody)
heavy: B2 heavy with S32N, R56N, S60A
- binding activity to HEK293T-hBCMA cells [3]: strong specific binding activity
- cell killing of BCMA-positive cells NCI-H929 (NCI-H929 cells [4]): cannot effectively kill

B4: PR000020: anti-CTLA4 fully human HCAb antibody, SEQ ID NO: 64 (antibody)
heavy: SEVQLVETGGGLIQPGGSLRLSCAASGLNVSRHYLSWVRQAPGKGLEWVAVIYSGGGIEYVDSVKGRFTISRDNANNTLYLQMRSLRTEDSAVYYCARAIPRPHGSDIWGQGTMVTVSS[not shown - human IgG1 Fc]
- binding activity to HEK293/hCTLA4 cells [5]: strong specific binding activity

B5: PR000020-ADC (conjugate)
heavy: B4 heavy
- binding activity to HEK293/hCTLA4 cells [5]: strong specific binding activity
